# Reference: PMC4336329 (PLoS ONE, 2015)
# About 2,200 (0.71%) of roughly 310,000 compounds showed an effect of 50% or more. The effect is printed as a negative number. Some of the results follow.
# Molecular target: human ether-à-go-go-related gene (hERG) potassium channel (human, UniProt Q12809)
# Experiment: primary screen, population patch clamp on CHO cells stably expressing hERG
# Chain of human ether-à-go-go-related gene (hERG) potassium channel (Q12809 whole entry, looked up): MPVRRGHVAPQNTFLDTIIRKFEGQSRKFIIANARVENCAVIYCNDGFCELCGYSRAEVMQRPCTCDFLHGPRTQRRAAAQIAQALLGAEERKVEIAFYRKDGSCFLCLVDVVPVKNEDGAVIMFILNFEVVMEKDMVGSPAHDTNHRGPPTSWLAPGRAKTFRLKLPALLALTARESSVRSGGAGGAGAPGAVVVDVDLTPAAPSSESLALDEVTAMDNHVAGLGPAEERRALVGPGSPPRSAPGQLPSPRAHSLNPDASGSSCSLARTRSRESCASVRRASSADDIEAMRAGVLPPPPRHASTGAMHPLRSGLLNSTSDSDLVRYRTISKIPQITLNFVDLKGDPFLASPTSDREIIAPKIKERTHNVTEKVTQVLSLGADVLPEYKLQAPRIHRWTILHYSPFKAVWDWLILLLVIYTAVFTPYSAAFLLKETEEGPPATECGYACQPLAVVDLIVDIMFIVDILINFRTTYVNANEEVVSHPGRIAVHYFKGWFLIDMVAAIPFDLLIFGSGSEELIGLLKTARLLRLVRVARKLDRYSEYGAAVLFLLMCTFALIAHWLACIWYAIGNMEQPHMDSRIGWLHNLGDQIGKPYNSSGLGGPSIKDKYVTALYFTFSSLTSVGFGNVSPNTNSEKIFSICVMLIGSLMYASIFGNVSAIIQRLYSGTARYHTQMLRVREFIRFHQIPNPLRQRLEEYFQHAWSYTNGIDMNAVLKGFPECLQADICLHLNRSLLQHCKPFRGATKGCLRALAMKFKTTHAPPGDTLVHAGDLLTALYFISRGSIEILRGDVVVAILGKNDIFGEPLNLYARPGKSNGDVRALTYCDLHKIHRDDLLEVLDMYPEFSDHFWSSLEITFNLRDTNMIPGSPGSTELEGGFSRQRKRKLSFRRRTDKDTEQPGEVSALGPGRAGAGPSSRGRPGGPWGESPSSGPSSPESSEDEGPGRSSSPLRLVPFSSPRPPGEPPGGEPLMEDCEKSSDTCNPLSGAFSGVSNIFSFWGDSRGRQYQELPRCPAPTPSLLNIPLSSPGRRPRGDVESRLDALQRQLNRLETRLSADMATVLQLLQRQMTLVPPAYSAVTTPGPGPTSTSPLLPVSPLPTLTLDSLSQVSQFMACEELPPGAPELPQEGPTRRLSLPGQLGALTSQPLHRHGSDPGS
row,Compound,"hERG current change (%, negative = inhibition) at 1uM"
1,CC(Oc1ccc(Br)cc1)C(=O)N1CCN(c2ccccn2)CC1 (centres unmarked),-0.257%
2,Cc1ccc(OCC(=O)N2CCN(C(=O)c3ccc([N+](=O)[O-])cc3)CC2)cc1,-19.5%
3,Cc1ccc(SCc2cc(=O)[nH]c(N3CCN(C)CC3)n2)cc1,-3.41%
4,CCS(=O)(=O)Nc1cccc(C2=NN(S(=O)(=O)CC)C(c3ccccc3)C2)c1 (centres unmarked),1.13%
5,COc1cc(NC(=O)CSc2nnc(C)s2)cc(OC)c1OC,7.36%
6,O=S1(=O)CCO[C@H]2Cc3ccccc3[C@H]2N1Cc1cccc(Cl)c1,-0.829%
7,COc1ccc(OC)c2[nH]c(=O)c(CCNC(=O)c3ccc(S(=O)(=O)N4CCCCC4)cc3)cc12,5.9%
8,O=C(CCC(=O)N1CCc2ccccc21)Nc1ccccc1,3.36%
9,COc1cccc(NC(=O)c2sc3nc4n(c(=O)c3c2C)CCC4)c1,13%
10,CS(=O)(=O)N(CC(=O)NCc1ccc2c(c1)OCO2)Cc1ccccc1,-1.52%
11,CSc1ncccc1-c1nc2ccccc2[nH]1,14.3%
12,CC(=O)c1ccc(S(=O)(=O)N(C)CC(=O)NCc2ccco2)cc1,13.4%
13,O=C(NC1CCCCNC1=O)c1ccccc1 (centres unmarked),10.8%
14,COc1ccccc1-c1nc2ccccc2c(=O)n1O,16.2%
15,Cc1cc(C)c(C#N)c(SCC(=O)Nc2ccc3c(c2)OCO3)n1,12.9%
16,Cc1cccc(OCCOc2ccccc2C=C(C#N)C#N)c1,9.22%
17,CSCC[C@H](NC(=O)[C@@H]1CSC2c3ccccc3C(=O)N21)C(=O)N1CCC[C@H]1CO (some centres unmarked),7.38%
18,N#Cc1c(-c2cccc([N+](=O)[O-])c2)nc2n(c1=O)CCS2,14.6%
19,CCCCCn1ccc(=N)cc1.I,9.03%
20,C#CC[N+](CC)(CC)CC#Cc1ccccc1.[Br-],13.1%
21,C=CCn1c(=N)n(CC(=O)c2ccc(Br)cc2)c2ccccc21,0.719%
22,CC(=O)c1cccc(NC(=S)NC(=O)c2cccc(C)c2)c1,17.2%
23,CCOc1ccc(C(CC(=O)O)NC(=O)C(c2ccccc2)c2ccccc2)cc1OC (centres unmarked),7.46%

row,Compound,"hERG current change (%, negative = inhibition) at 1uM"
1,Cc1cc(C)cc(C(=O)NCC(=O)OCC(=O)NCC(F)(F)F)c1,14.5%
2,COc1ccc(NC(=O)CN(C)C(=O)c2cccc(-n3cccc3)c2)cc1,5.91%
3,N#Cc1nc(-c2ccccc2)oc1NCC1CCCO1 (centres unmarked),11.1%
4,CCCc1cc(=O)[nH]c(SCc2csc(-c3ccccc3)n2)n1,10.8%
5,O=C(NCc1ccco1)c1cc(S(=O)(=O)N2CCCc3ccccc32)ccc1Cl,-9.08%
6,Cc1c(Cl)cccc1NC(=O)CCC(=O)NNC(=O)c1ccccc1Cl,-6.66%
7,Cc1ccc(-c2cc(-c3n[nH]c(=S)n3C)c3ccccc3n2)cc1,27.9%
8,CC1(C)COCN1C(=O)c1ccc(C#N)cc1,10.2%
9,O=C(Nc1ccc2[nH]c(=O)[nH]c2c1)c1ccc(Cl)c(Cl)c1,15.9%
10,Cc1ccc2nc(N/C(=N/S(=O)(=O)c3cccs3)c3ccccc3Cl)sc2c1,-0.0403%
11,Cc1ccc(Sc2nc3ccc(C)cn3c(=O)c2/C=N/O)cc1,14.1%
12,O[C@@H]1CN(C2CCCCC2)CC[C@H]1N1CCN(CCc2ccccc2)CC1,17.6%
13,COc1ccc([N+](=O)[O-])cc1NC(=O)C1CCCO1 (centres unmarked),13.4%
14,COc1cc2c(cc1OC)/C(=C/C(=O)c1cccc([N+](=O)[O-])c1)NCC2,10.6%
15,O=C(COC(=O)CNC(=O)C1CCCCC1)Nc1cc(C(F)(F)F)ccc1Cl,12.1%
16,COc1ccc(NCC(O)Cn2c(C)c(C)c3ccccc32)cc1 (centres unmarked),4%
17,CCOC(=O)N1CCC(n2c(=S)[nH]c3cc(OC)c(OC)cc3c2=O)CC1,-0.548%
18,Cc1cc(NC(=O)c2ccccc2C)n(-c2cccc(F)c2)n1,10.1%
19,COc1cc(SC)ccc1C(=O)NCCOc1ccccc1Cl,5.01%
20,COc1ccc(C2N3CC4(C)CN2CC(C)(C3)C4O)cc1OC (centres unmarked),13.1%
21,Cc1cccc(-c2nc(C#N)c(NCc3ccco3)o2)c1,6.72%
22,O=C(CSc1nnc(-c2ccc(Cl)cc2)n1CC1CCCO1)NC1CCS(=O)(=O)C1 (centres unmarked),7.69%
23,Cc1ccc(CC2C(=O)N(CC(=O)O)C(=O)C2C)cc1 (centres unmarked),-1.57%

row,Compound,"hERG current change (%, negative = inhibition) at 1uM"
1,O=C(COC(=O)c1sc2ccccc2c1Cl)NCC1CCCCC1,3.47%
2,COc1ccc(-c2noc(Cc3ccc(Cl)cc3)n2)cc1OC,5.89%
3,CC1CN(C(=O)CCC(=O)NCc2ccccc2)c2ccccc2S1 (centres unmarked),4%
4,CCN(CC)C(=O)c1ccc(NC(=O)c2cc(S(=O)(=O)N3CCCCCC3)ccc2OC)cc1,4.29%
5,COC(=O)c1cc(C(=O)Nc2ccc(S(=O)(=O)NC(C)(C)C)cc2)cc([N+](=O)[O-])c1,-2.16%
6,CCn1c(=NC(=O)c2ccc(N3C(=O)CCC3=O)cc2)sc2c(OC)ccc(OC)c21,11.4%
7,CCOc1ccc(C(=O)OCC(=O)N2CCOCC2)cc1OCC,12.8%
8,CCOCCCNCc1cc(Br)ccc1OCC.Cl,-9.52%
9,COc1ccc(C)cc1NC(=O)c1ccoc1C,7.47%
10,CCOc1ccccc1NC(=O)c1nc(S(=O)(=O)Cc2ccccc2)ncc1Cl,13.5%
11,CC(C)c1ccc(S(=O)(=O)N2CCN(C(=O)CCNC(=O)Nc3ccccc3)CC2)cc1,7.73%
12,O=C(NCCN1CCN(c2ccccc2)CC1)C1(S(=O)(=O)c2ccc(Cl)cc2)CC1,-12.6%
13,CCOC(=O)c1c(NS(=O)(=O)Cc2ccccc2)sc2c1CCCC2,4.35%
14,Fc1ccc(-c2cc(C(F)(F)F)nc(NCc3cccs3)n2)cc1,9.77%
15,Cc1ccc(NC(=O)NCCN2C(=O)C3C4C=CC(C4)C3C2=O)cc1 (centres unmarked),5.44%
16,COc1ccc(/C=C/C(=O)N(C)c2ccccc2C(=O)O)cc1,1.46%
17,COc1ccc(CN(C)C(=O)CCN=C2NS(=O)(=O)c3ccccc32)c(OC)c1,2.21%
18,Nc1ccc(N2CCOCC2)c(S(=O)(=O)Nc2cc(Cl)ccc2Cl)c1,4.83%
19,O=C(c1ccco1)N1CCN(c2ccc([N+](=O)[O-])cn2)CC1,-40.2%
20,CN(CC1CCCN(CCc2ccc(Cl)cc2)C1)C(=O)c1ccco1 (centres unmarked),11.1%
21,Fc1nc(N2CCCC2)c(F)c(Oc2ccccc2Oc2c(F)c(F)nc(N3CCCC3)c2F)c1F,6.4%
22,Cc1cc2ncn(C(=O)N3CCCCC3)c2cc1C,8.99%
23,COc1ccc(CN2CCC(C(N)=O)CC2)cc1OCc1ccccc1.O=C(O)C(=O)O,15.7%

row,Compound,"hERG current change (%, negative = inhibition) at 1uM"
1,O=C1NC2(CCCCCC2)C(=O)N1Cc1ccc(F)cc1Cl,9.12%
2,COc1ccc(/C=C/C(=O)NC(=S)NNC(=O)c2cccs2)cc1OC,9.55%
3,CCOC(=O)CSc1nnc(CNc2ccc(Cl)cc2)n1Cc1ccccc1,8.95%
4,Cc1cccc(NC(=O)CSc2nc3ccccc3c(=O)n2C)c1,2.45%
5,CCCOc1cccc(C(=O)NC(=S)Nc2ccc(N3CCN(C)CC3)cc2)c1,11.2%
6,Cc1ccc(S(=O)(=O)N2CCCCC2CCNC(=O)C(=O)NCc2ccccc2C)cc1 (centres unmarked),10.6%
7,COc1ccccc1N1CC(C)C(=O)NC1=S (centres unmarked),15%
8,Cc1c(C(=O)N2CCc3ccccc32)oc2ccccc12,12.4%
9,CC1CN(C(=O)CN2C(=O)c3ccccc3S2(=O)=O)CC(C)O1 (centres unmarked),9.92%
10,COc1ccc(Nc2nc(N3CCCC3)nc3ccccc23)c(OC)c1,-7.36%
11,CC1CCN(C(=O)CSc2nc3cccnc3n2C)CC1,5.46%
12,CCOC(=O)c1ccc(N2C(=O)CC(C(=O)OC)=C2C)cc1,19.6%
13,CN(C)c1ccc(P(=O)(COc2ccc([N+](=O)[O-])cc2)c2ccc(N(C)C)cc2)cc1,-7.21%
14,CCc1nnc(NC(=O)CSc2nc(N)c(NC(=O)c3ccc(OC)cc3)c(=O)[nH]2)s1,12.3%
15,CCOCCc1nn2c(=O)cc(CSCC(=O)Nc3cc(C)cc(C)c3)nc2s1,6.35%
16,O=C(/C=C/c1ccccc1)NC(=S)Nc1ccc2c3c(cccc13)CC2,17.4%
17,Cc1ccc(C(=O)N=c2sccn2C)o1,16%
18,COc1ccc(-c2ccc(S(=O)(=O)NCC3CCCO3)cc2)cc1 (centres unmarked),8.43%
19,C=CCNC(=O)c1ccc(Cn2c(=S)[nH]c3cc4c(cc3c2=O)OCO4)cc1,15.7%
20,COc1cccc2cc(C(=O)Nc3cc(C)cc(C)c3)/c(=N/NS(=O)(=O)c3ccccc3)oc12,14.3%
